Experimental data published in PubChem BioAssay AID1347165 (National Center for Advancing Translational Sciences (NCATS), 2019).
Values joined by “and” are separate entries in the source; they are usually repeats but may differ in a detail not shown here. Identical values can stand only once. About 5,700 (2.6%) of roughly 220,000 compounds were called active. This list was built around the results that the source calls inconclusive (neither active nor inactive); the mix of calls is not that of the screen. The call rests on the fitted dose curve; in most records, active means well fitted inhibition curve with a large enough effect; inconclusive means small, poorly fitted or top-dose-only effect; inactive means no such curve, though single readings can be large or run the other way. Potencies beside an inconclusive call are fits to weak or partial responses and may not hold up.

What follows are compounds tested against Lysine-specific demethylase 5B (Homo sapiens) (UniProt Q9UGL1) (assay: Primary screen for KDM5B Histone Demethylases FDH-coupled qHTS). Settings: FDH-coupled NADH fluorescence (FDH is formaldehyde dehydrogenase); activity change, negative = inhibition: at 57.7 µM (top of the series) unless noted.
Procedure, shortened: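 Here, H3K4me3 peptide (12.5 µM in substrate mix) is demethylated by KDM5BΔAP, 200 nM final, after 10 min compound exposure. Formaldehyde product is coupled through FDH (0.25 U/mL in mix) to NADH fluorescence; 30-min ΔRFU feeds dose-response curves.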
Further: nearly all actives have a fitted effect of over 70% in size.
Potency means the concentration at half of the fitted maximal effect; tags describe the fitted curve by direction and shape.
Wherever activity change, negative = inhibition is given: 0% is about no effect.

Sequence of UniProt Q9UGL1 (Q9UGL1 whole entry, looked up): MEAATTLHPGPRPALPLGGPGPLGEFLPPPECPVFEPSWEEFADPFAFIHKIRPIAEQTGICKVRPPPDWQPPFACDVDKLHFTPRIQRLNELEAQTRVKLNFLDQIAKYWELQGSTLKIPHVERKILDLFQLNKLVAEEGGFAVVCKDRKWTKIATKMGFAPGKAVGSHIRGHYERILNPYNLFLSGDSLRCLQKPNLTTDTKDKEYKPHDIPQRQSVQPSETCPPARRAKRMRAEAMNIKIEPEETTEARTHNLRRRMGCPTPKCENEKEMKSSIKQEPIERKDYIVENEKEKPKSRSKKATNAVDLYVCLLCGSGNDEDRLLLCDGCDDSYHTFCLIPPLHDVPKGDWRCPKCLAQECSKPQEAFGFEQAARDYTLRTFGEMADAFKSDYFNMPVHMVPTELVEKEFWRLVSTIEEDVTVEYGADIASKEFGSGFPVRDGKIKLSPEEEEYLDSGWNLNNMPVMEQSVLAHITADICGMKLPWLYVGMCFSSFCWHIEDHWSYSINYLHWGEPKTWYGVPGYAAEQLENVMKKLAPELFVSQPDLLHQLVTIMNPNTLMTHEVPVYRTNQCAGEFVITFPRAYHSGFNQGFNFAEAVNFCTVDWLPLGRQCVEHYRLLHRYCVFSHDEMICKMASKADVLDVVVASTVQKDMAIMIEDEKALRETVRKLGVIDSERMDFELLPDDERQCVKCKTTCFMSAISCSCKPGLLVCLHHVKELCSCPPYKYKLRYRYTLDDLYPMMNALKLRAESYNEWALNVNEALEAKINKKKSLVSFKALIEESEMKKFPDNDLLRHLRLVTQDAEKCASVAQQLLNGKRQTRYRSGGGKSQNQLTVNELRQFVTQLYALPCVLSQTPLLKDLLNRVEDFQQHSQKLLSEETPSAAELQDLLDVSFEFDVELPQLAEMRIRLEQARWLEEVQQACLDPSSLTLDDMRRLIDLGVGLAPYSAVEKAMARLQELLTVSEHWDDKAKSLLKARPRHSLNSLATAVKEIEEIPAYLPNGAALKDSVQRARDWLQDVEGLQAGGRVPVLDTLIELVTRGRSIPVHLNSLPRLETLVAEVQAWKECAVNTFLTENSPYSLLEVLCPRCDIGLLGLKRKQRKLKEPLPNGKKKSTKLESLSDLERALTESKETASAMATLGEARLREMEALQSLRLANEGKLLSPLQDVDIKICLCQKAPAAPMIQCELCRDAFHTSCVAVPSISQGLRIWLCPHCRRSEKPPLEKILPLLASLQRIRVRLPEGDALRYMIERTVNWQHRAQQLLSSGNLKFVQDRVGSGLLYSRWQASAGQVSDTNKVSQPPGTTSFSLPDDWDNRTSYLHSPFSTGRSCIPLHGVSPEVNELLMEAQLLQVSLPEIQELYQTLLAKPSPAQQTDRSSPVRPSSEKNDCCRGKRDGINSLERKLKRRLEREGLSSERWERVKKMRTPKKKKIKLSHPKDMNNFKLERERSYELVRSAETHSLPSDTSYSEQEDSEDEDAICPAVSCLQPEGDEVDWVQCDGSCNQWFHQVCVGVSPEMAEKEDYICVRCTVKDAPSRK

Question: `CC(C)c1nc(NCCN2CCOCC2)c(C#N)c2c1CCCC2` was tested. Which Potency did it give?
Answer: inconclusive: 25.1 µM [inhibitor, single point]

Question: For `CCN(CC)CCN(C(=O)c1ccc(C(=O)c2ccccc2)cc1)c1nc2cc3c(cc2s1)OCO3`, which Potency is on record?
Answer: inconclusive: 28.2 µM [inhibitor, single point]

Question: For `CCCCN(C1CCS(=O)(=O)C1)S(=O)(=O)c1ccc(OC)c(C)c1` (stereo not drawn), which “activity change, negative = inhibition” value is on record?
Answer: inactive: 19.4%

Question: For `Cc1cc(OCC(=O)OCC(=O)c2ccc3c(c2)CCC3)ccc1Cl`, which “activity change, negative = inhibition” value is on record?
Answer: inactive: 9.13%

Question: With `N#Cc1nc(-c2ccccc2F)oc1NCc1ccco1` as the compound, how does the Potency read?
Answer: inconclusive: 25.1 µM [inhibitor, partial curve, poor fit]

Question: How did the Potency turn out when `Nc1nccnc1C(=O)NCCNc1ncccn1` was run?
Answer: inconclusive: 28.2 µM [inhibitor, single point]

Question: For `Cn1c(=O)c2ccnn2c2ccc(C(=O)NC3CCCC3)cc21`, which Potency is on record?
Answer: inconclusive: 28.2 µM [inhibitor, partial curve, poor fit]

Question: For `CCN(CC)C(=O)c1sc(NC(=O)c2nc3ncccn3n2)c(C(=O)OC)c1C`, which Potency is on record?
Answer: inconclusive: 7.94 µM [inhibitor, partial curve, poor fit]

Question: How did the Potency turn out when `CCOC(=O)c1ccccc1NC(=O)NC(C)c1c(-n2cccc2)sc(C)c1C` (stereo not drawn) was run?
Answer: inconclusive: 17.8 µM [inhibitor, partial curve, poor fit]

Question: How did the Potency turn out when `CCC1CN(C(=O)c2cc(F)ccc2OC)CCC(=O)N1Cc1ccccc1` (stereo not drawn) was run?
Answer: inconclusive: 28.2 µM [inhibitor, single point]

Question: `Cc1ccc(CNc2oc(-c3ccco3)nc2C#N)cc1` was tested. Which Potency did it give?
Answer: inconclusive: 2 µM [inhibitor, full curve, poor fit]

Question: `O=c1c2c(n(Cc3cccnc3)n1-c1ccccc1)CN(Cc1ccccc1Cl)CC2` was tested. Which Potency did it give?
Answer: inconclusive: 39.8 µM [inhibitor, partial curve, poor fit]

Question: How did the Potency turn out when `COCC(=O)N1CCN(c2oc(-c3cccc(C)c3)nc2S(=O)(=O)c2ccc(F)cc2)CC1` was run?
Answer: inconclusive: 39.8 µM [inhibitor, single point]

Question: Which Potency does the source give for `CCOC(=O)Nc1ccc2c(CN3CCC(C(=O)OCC)CC3)cc(=O)oc2c1` here?
Answer: inconclusive: 22.4 µM [inhibitor, partial curve, poor fit]

Question: For `c1ccc2ncc(CN3CCC[C@H]3c3nc(-c4ccc(OC5CCCCC5)nc4)no3)cc2c1`, which Potency is on record?
Answer: inconclusive: 12.6 µM [inhibitor, partial curve]

Question: Which Potency does the source give for `Cc1sc(NC(=O)c2ccccc2)c(C(c2ccccn2)N2CCCCC2)c1C` (stereo not drawn) here?
Answer: inconclusive: 39.8 µM [inhibitor, single point]

Question: Which “activity change, negative = inhibition” value does the source give for `O=C(NCC1(N2CCOCC2)CCSC1)Nc1ccccc1F` (stereo not drawn) here?
Answer: inactive: 16%

Question: For `O=C1C=C(N2CCCCC2)c2ccccc2C1=O`, which Potency is on record?
Answer: inconclusive: 17.8 µM [inhibitor, partial curve, poor fit]

Question: With `COc1ccccc1-c1nc2nccc(-c3ccc(Cl)cc3)n2n1` as the compound, how does the Potency read?
Answer: active: 31.6 µM

Question: With `CC(=O)c1ccc(N2CCN(c3ccc(NC(=O)c4cccs4)cc3C(=O)O)CC2)cc1` as the compound, how does the Potency read?
Answer: inconclusive: 25.1 µM [inhibitor, single point]

Question: For `O=c1cc(CN2CCN(S(=O)(=O)c3cccc(Cl)c3)CC2)c2ccc(O)cc2o1`, which Potency is on record?
Answer: inconclusive: 22.4 µM [inhibitor, partial curve, poor fit]

Question: For `CC(C(=O)NCc1ccccc1Cl)n1ccc2cc(S(=O)(=O)N3CCCCC3)ccc21` (stereo not drawn), which “activity change, negative = inhibition” value is on record?
Answer: inactive: -4.59%

Question: With `COc1ccc(OC)c(NC(=O)CCn2nc(-c3ccccc3OC)c3c(C)cc(C)nc32)c1` as the compound, how does the Potency read?
Answer: inconclusive: 28.2 µM [inhibitor, single point]

Question: How did the “activity change, negative = inhibition” value turn out when `CCCn1cnc2nc(CSc3ccccc3NC(=O)COc3cccc(F)c3)cc(=O)n21` was run?
Answer: inactive: -7.36%

Question: Which Potency does the source give for `O=C(CNCc1cccnc1)Nc1cc(C(F)(F)F)ccc1N1CCOCC1` here?
Answer: inconclusive: 3.16 µM [inhibitor, full curve, poor fit]

Question: How did the “activity change, negative = inhibition” value turn out when `CCN(C(=O)Cn1nc(Cc2cccnc2)c2ccccc2c1=O)c1ccc(C)c(C)c1` was run?
Answer: inactive: 10.8%

Question: With `O=C(Nc1ccccc1)c1cnc2n1CCN(Cc1c[nH]c3ccccc13)CC2` as the compound, how does the “activity change, negative = inhibition” value read?
Answer: inactive: -1.3% [at 86.2 µM]

Question: Which Potency does the source give for `C#CCNC(=O)[C@@H]1Cc2cn(Cc3c(C)noc3C)c3cccc(c23)[C@H](CC(C)C)N1` here?
Answer: inconclusive: 50.1 µM [inhibitor, single point]

Question: With `Cc1ccc(C2c3c(-c4cc(C)ccc4O)n[nH]c3C(=O)N2Cc2ccco2)cc1` (stereo not drawn) as the compound, how does the Potency read?
Answer: inconclusive: 22.4 µM [inhibitor, single point]

Question: How did the Potency turn out when `COc1ccc(-c2cnc(Nc3cccc(N[S+](C)(=O)[O-])c3)c3c2CCO3)cn1` was run?
Answer: inconclusive: 35.5 µM [inhibitor, partial curve, poor fit]

Question: With `Fc1ccc(CCNc2cc(Cl)nc3ccnn23)cc1` as the compound, how does the “activity change, negative = inhibition” value read?
Answer: inactive: -13.1% [at 86.2 µM]

Question: For `Oc1ccc(Nc2nc3ccccc3n3cnnc23)cc1`, which Potency is on record?
Answer: inconclusive: 28.2 µM [inhibitor, partial curve, poor fit]

Question: How did the “activity change, negative = inhibition” value turn out when `Cn1ncc2c(Nc3cccc4c3CCCC4)ncnc21` was run?
Answer: inactive: -4.66%

Question: `CC(C)CCCC(C)NC(=O)C1CCN(c2nc(Cl)nc3nc[nH]c23)CC1` (stereo not drawn) was tested. Which Potency did it give?
Answer: inconclusive: 39.8 µM [inhibitor, single point]

Question: How did the “activity change, negative = inhibition” value turn out when `Cc1cccc(C(=O)NCCc2c[nH]c3ccc(C)cc23)c1` was run?
Answer: inactive: 5.17%

Question: Which Potency does the source give for `c1coc(-c2nc3ncccc3[nH]2)c1` here?
Answer: inconclusive: 141 µM [inhibitor, partial curve, poor fit] and active: 31.6 µM

Question: How did the Potency turn out when `CSc1ccc(NC(=O)C(C)N2CCN(C)CC2)cc1` (stereo not drawn) was run?
Answer: inconclusive: 5.62 µM [inhibitor, full curve, poor fit]

Question: How did the “activity change, negative = inhibition” value turn out when `CCCC(C)NC(=O)CN1CCN(c2oc(-c3ccco3)nc2C#N)CC1` (stereo not drawn) was run?
Answer: inactive: 453%

Question: With `N#Cc1cccc(NC(=O)COc2ccc(C(=O)c3ccccc3)cc2)c1` as the compound, how does the “activity change, negative = inhibition” value read?
Answer: inactive: 5.86%

Question: `Cn1c(=O)c2c(nc(NCc3ccco3)n2Cc2cccc(Cl)c2)n(C)c1=O` was tested. Which “activity change, negative = inhibition” value did it give?
Answer: inactive: -6.36%

Question: For `O=c1[nH]c2cc3c(cc2c(=O)n1CCc1nc(-c2ccccc2)no1)OCO3`, which “activity change, negative = inhibition” value is on record?
Answer: inactive: -16%

Question: For `COc1cccc(/C=C/C(=O)OCC(=O)Nc2cccc(S(=O)(=O)NC3=NCCCCC3)c2)c1`, which Potency is on record?
Answer: inconclusive: 28.2 µM [inhibitor, partial curve, poor fit]

Question: For `COc1ccccc1CC(=O)NC(C)C(=O)N1CCN(c2ccccn2)CC1` (stereo not drawn), which Potency is on record?
Answer: active: 28.2 µM
